About 14,000 (4.5%) of roughly 310,000 compounds showed an effect of 50% or more. The effect is printed as a negative number. The list shows a part of the results.
What follows are compounds tested against human ether-à-go-go-related gene (hERG) potassium channel (human, UniProt Q12809) (assay: primary screen, population patch clamp on CHO cells stably expressing hERG).
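Further: peak tail current of the secondary pulse compared with the same well before compound.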

Chain of human ether-à-go-go-related gene (hERG) potassium channel (Q12809 whole entry, looked up): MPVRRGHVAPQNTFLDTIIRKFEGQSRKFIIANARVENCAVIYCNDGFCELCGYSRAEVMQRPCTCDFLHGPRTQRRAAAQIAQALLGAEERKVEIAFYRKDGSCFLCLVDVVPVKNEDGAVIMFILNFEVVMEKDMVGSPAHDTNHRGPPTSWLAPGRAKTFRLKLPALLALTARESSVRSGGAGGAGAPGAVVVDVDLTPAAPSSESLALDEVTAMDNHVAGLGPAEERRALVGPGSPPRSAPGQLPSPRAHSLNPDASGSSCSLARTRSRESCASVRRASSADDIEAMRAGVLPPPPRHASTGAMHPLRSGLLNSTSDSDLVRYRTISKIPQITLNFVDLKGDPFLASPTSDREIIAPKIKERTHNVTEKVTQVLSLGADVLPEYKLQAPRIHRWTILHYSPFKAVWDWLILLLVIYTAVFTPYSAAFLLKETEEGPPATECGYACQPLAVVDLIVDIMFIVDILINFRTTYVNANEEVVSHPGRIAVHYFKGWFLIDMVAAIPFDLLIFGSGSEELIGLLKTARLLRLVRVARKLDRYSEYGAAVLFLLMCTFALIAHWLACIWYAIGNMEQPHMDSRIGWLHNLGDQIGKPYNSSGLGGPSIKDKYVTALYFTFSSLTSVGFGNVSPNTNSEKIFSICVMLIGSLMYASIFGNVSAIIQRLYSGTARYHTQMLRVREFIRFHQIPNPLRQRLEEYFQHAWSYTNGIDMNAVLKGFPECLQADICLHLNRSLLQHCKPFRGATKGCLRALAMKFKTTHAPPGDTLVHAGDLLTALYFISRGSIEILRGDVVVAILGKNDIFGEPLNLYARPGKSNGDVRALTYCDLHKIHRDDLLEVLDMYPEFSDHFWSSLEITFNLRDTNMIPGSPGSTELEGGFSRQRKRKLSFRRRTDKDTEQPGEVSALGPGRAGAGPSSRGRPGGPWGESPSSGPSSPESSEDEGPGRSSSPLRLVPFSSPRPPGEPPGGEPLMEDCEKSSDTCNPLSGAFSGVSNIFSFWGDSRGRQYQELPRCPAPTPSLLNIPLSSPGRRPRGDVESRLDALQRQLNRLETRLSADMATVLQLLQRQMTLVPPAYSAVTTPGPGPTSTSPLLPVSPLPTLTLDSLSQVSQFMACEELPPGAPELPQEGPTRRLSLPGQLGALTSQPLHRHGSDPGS

SMILES	hERG current change (%, negative = inhibition) at 10uM [%]
O=[N+]([O-])c1cc(NCCO)c(N2CCCCCC2)c2nonc12	10.7
Cc1ccccc1NC(=O)C1CCCN(S(=O)(=O)c2ccc(-n3cnnn3)cc2)C1 (centres unmarked)	-22.4
O=C(CS(=O)(=O)c1c[nH]c2ccccc12)N1CCCCCC1	43.4
CC1CCCC(C)N1C(=O)COC(=O)CNC(=O)C12CC3CC(CC(C3)C1)C2 (centres unmarked)	-8.89
CSCC[C@H](NC(=O)CCCn1nnc2ccccc2c1=O)C(=O)O	0.823
N#Cc1c(Cl)nc2c(c1C#N)CCCC2	-4.05
Cc1cc(F)ccc1S(=O)(=O)NCC1CC2CCC1C2 (centres unmarked)	-18.6
O=C(c1cccs1)N1N=C(c2ccccc2)CC1c1ccccc1 (centres unmarked)	3.72
COc1cc(Nc2ccc(C(=O)O)cc2[N+](=O)[O-])cc(OC)c1	37.4
COc1cc(NS(=O)(=O)c2cccc3nsnc23)cc(OC)c1	0.833
CCCCN1C(=O)Nc2ccccc2S1=O (centres unmarked)	3.55
COC(=O)c1[nH]c2cc(OC)ccc2c1N=CN(C)C	-12.6
CC(=O)N(CCCN1CCOCC1)Cc1ccncc1.Cl	16.4
CNC(=O)CSc1nnc(CCc2ccccc2)n1-c1ccccc1	-13
O=C(CCS(=O)(=O)CCN1CCOCC1)NCNC(=O)CCS(=O)(=O)CCN1CCOCC1	8.25
CCOC(=O)C1=C(C)NC(=O)N(C(C)=O)C1c1ccc(Cl)cc1 (centres unmarked)	4.43
O=C(O)/C(=C\c1ccc2ccccc2c1)c1cccc2ccccc12	6.53
CN(CCC#N)C(=O)CSc1nnc(-c2ccco2)n1N	6.26
CC1CC(C)CN(CCCNC(=O)c2ccc3c(c2)NC(=O)CS3)C1 (centres unmarked)	3.68
CSc1ccccc1NC(=O)c1ccncc1	3.62
Oc1ccc2ccccc2c1C1Nc2cccc3cccc(c23)N1	-18.3
COc1cccc(CN2CC(C(=O)NCC3CCOCC3)CCC2=O)c1 (centres unmarked)	22.7
O=C(CNC(=O)c1ccc(Cl)cc1Cl)OCc1nnc(-c2ccccc2)o1	-8.74

SMILES	hERG current change (%, negative = inhibition) at 10uM [%]
CCC(=O)Nc1ccc(NC(=O)c2cccc3ccccc23)cc1	23.9
CCS(=O)(=O)N1Cc2ccccc2CC1C(=O)N(C)CC(=O)Nc1ccc(OC)cc1 (centres unmarked)	-12.9
C/C=C/c1ccc(OCC(=O)OCC2=C(C(=O)OCC)C(C)NC(=O)N2)c(OC)c1 (centres unmarked)	-7.22
O=C(O)c1cc(S(=O)(=O)N2CCCCC2)sc1Cl	17
C=CCn1c(SCC(=O)NNC(=S)Nc2ccccc2)nnc1-c1ccccc1	15.9
O=C(CCCNC(=O)/C(=C\c1ccccc1F)NC(=O)c1ccccc1)OCc1ccccc1	-9.13
CC(O)CNCCCOc1ccccc1OCc1ccccc1.O=C(O)C(=O)O (centres unmarked)	-36.7
Cl.Cn1c(=O)c2c(ncn2CCNC2=NCCCCC2)n(C)c1=O	5.44
CCOc1ccc2nc3sc(C(=O)N4CCOCC4)c(N)c3cc2c1	-5.89
CCSc1nnc(COc2ccccc2)n1CC	6.43
CC(C)CC(NC(=O)OC(C)(C)C)c1cn([C@@H](Cc2cc3ccccc3[nH]2)C(=O)N2CCN(C(=O)OC(C)(C)C)CC2)nn1 (some centres unmarked)	-9.1
Cc1cc(N2CCN(C(=O)OC(C)(C)C)CC2)n2ncnc2n1	-27.5
COc1ccc2c(c1)c(=O)c(C(=O)c1ccc(F)cc1)cn2CC(=O)Nc1ccc(F)cc1	-5.61
CCn1c(CNC(=O)c2ccc(F)cc2)cc2ccccc21	6.31
COc1ccc(OCc2nn[nH]n2)cc1	15.9
CCOc1ccccc1NC(=O)NCc1ccccc1	0.101
CCOC(=O)c1c(C)[nH]c(C(=O)CN2CCN(CC)CC2)c1C.O=C(O)C(=O)O	8.52
CC1(/[N+]([O-])=C/c2ccc(F)cc2)CCCCC1=O (centres unmarked)	6.1
Cc1ccc(NC(=O)C(NC2CCCc3ccccc32)c2ccccc2)cc1Cl.O=C(O)C(=O)O (centres unmarked)	-3.44
Cc1ccc(OP(=O)(O)Oc2ccc(C)cc2)cc1	2.09
COc1ccc(CN2C[C@H](C)[C@@H](CC(=O)NCc3ccccc3)C2=O)cc1	-10.7
Nc1nonc1-n1nnc(C(=O)N/N=C/c2ccc(Cl)cc2)c1-c1ccc2c(c1)OCO2	28.7
S=C(c1ccc(Br)cc1)N1CCN(Cc2ccccc2)CC1	-36.3

SMILES	hERG current change (%, negative = inhibition) at 10uM [%]
Cc1ccc(C)c(-n2c(-c3ccncc3)n[nH]c2=S)c1	16.9
COc1ccc(NS(=O)(=O)c2ccc3oc(Nc4ccc5c(c4)OCCO5)nc3c2)cc1	-12.7
Cc1ccc2nc(-c3ccc(NC(=O)C(C)Sc4nncs4)cc3)sc2c1 (centres unmarked)	9.19
NS(=O)(=O)c1ccc(NC(=O)c2cc(Cl)ccc2Cl)cc1	14.4
CCCCn1nc(NC(=O)CC)c2cc3cc(OC)ccc3nc21	-11.2
COC(C[C@@H](O)C[C@@H](O)[C@H](C)OCc1ccccc1)OC	12.2
Cn1c2ccccc2c2cc(/C=N/NC(=O)c3ccccc3F)ccc21	19.7
COc1ccc(-c2cc(=O)[nH]c3ccccc23)cc1	5.09
CCc1nnc(N2C(=O)c3cccc4cccc(c34)C2=O)s1	4.47
CC(NC(=O)CCCCCNC(=O)N1CCn2c1nc1ccccc12)c1ccccc1 (centres unmarked)	-26.3
Cc1cc(OCC(=O)NC(Cc2c[nH]c3ccc(O)cc23)C(=O)O)c2c(C)c(C)c(=O)oc2c1 (centres unmarked)	16.9
O=C(CC1SC(=O)N(c2ccccc2)C1=O)Nc1ccccc1 (centres unmarked)	14.4
CCn1c2ccccc2c2cc(/C=N/NC(=O)c3cc(O)cc(O)c3)ccc21	6.41
O=c1oc2ccccc2c(Nc2cccc(O)c2)c1[N+](=O)[O-]	-2.92
CCCCNC(=O)/C(C#N)=C/c1ccc2c(c1)OCCO2	14.3
CCOc1ccc(NS(=O)(=O)c2c(C)nc3sc(CC)nn3c2=O)cc1	-14.5
Cc1cc(=O)n2cccc(O)c2n1.Cl	21.3
COc1cccc(CN(Cc2ccco2)C(c2ccc(F)cc2)c2nnnn2C(C)(C)C)c1 (centres unmarked)	1.81
CC(NC(=O)C1CCC(CNS(=O)(=O)c2ccc3c(c2)C(C)(C)C(=O)N3C)CC1)c1ccccc1 (centres unmarked)	-5.18
CC(=O)O.O=S(=O)(Cc1ccccc1)N1CCNCC1	14
O=C(N/N=C/c1ccc(-c2ccccc2[N+](=O)[O-])o1)c1cccnc1	-33
CNC(=S)N(CCc1ccc(S(N)(=O)=O)cc1)C1CC(=O)N(c2ccccc2F)C1=O (centres unmarked)	-1.12
O=C(/C=C/c1ccc(S(=O)(=O)N2CCOCC2)cc1)NCc1ccccc1Cl	4.53

SMILES	hERG current change (%, negative = inhibition) at 10uM [%]
Nc1c(C(=O)NCCN2CCOCC2)c2nc3ccccc3nc2n1-c1ccccc1	-52
O=C(NNC(=O)c1cc2cc(Br)ccc2oc1=O)c1ccc(O)cc1	2.69
CC(C)(C)OC(=O)N/N=C/c1ccc(N2CCOCC2)s1	3.77
CS(=O)(=O)N(CC(=O)Nc1ccc(F)cc1F)c1cccc([N+](=O)[O-])c1	-28.7
CN(C)CCCC(=O)c1ccc2c(c1)OCO2.Cl	4.44
Cc1ccc(S(=O)(=O)N(CC(=O)Nc2ccccc2C(=O)O)c2ccccc2C)cc1	15
Cc1ccc(-c2nc3ccccc3c(=O)n2NC(=O)COc2ccccc2)cc1	7.37
O=C(CN1CCCCCC1)Nc1ccc(F)c(F)c1.O=C(O)C(=O)O	-22.4
Cc1[nH]nc2c1C(c1ccc(-c3ccc(Cl)cc3)o1)C(C#N)=C(N)O2 (centres unmarked)	-1.84
COc1cc(OC)cc(C(=O)NNC(=O)c2ccc(S(=O)(=O)N(C)c3ccccc3OC)cc2)c1	3.39
Cc1ccccc1NC(=O)c1onc2c1CCCC2	0.172
O=C(NCc1ccccc1CN1CCCC1)c1cccc(N2CCCC2=O)c1	-3.11
C(=N\N=C\c1ccncc1)/c1ccncc1	0.858
CCCC1CC(CCc2ccccc2)OS(=O)(=O)N1 (centres unmarked)	-11.2
COc1ccc(-c2cn3ccc(C)cc3n2)cc1	-28.4
O=C(CSc1nccn1-c1ccccc1)NCc1ccc(F)cc1	-10.3
O=S(=O)(c1ccc(NC(=S)Nc2ccc(OC(F)F)cc2)cc1)N1CCOCC1	-27.7
COc1ccc(Nc2nnc(-c3ccc(C(=O)NCCO)cc3)c3ccccc23)cc1	-4.6
CC(C)(C)C1CCC(=NNC(=O)C2COc3ccccc3O2)CC1 (centres unmarked)	0.995
CC1CCCC(C)N1C(=O)COc1ccc([N+](=O)[O-])cc1Cl (centres unmarked)	-1.05

Source: PMC4336329 (PLoS ONE, 2015)
